Data reported in ChEMBL document CHEMBL4888484, “Replenishing the malaria drug discovery pipeline: Screening and hit evaluation of the MMV Hit Generation Library 1 (HGL1) against asexual blood stage Plasmodium falciparum ,using a nano luciferase reporter read-out” (2022).
The whole screen tested about 150,000 compounds, of which about 540 (0.36%) showed an effect of 50% or more. The list shows a part of the results.

Tested on: Plasmodium falciparum
Assay: Primary screen in NF54 nanoGlo assay, in single point, at 2uM, 72h; a lower Z score goes with more inhibition
Assay type: functional, Erythrocyte
Details: timepoint 72 hour

Structure (SMILES)	% Inhibition [%]	Z score
Cc1cc(C(=O)NC2CC(OCc3ccccc3)C2)on1 (centres undefined)	-6	1.06
Cc1cc(=O)n(CCN(Cc2c(C)nn(C)c2C)C(C)C)c(=O)[nH]1	-15	2.32
CN(Cc1ncnn1C)S(=O)(=O)c1c(F)cccc1Cl	3	-0.35
O=C1C[C@@H](C(=O)Nc2nccs2)Oc2ccc(Cl)cc21	32	-3.63
CCN1CCN(C(=O)N[C@@H](C)C(=O)OC)c2cccnc21	3	-0.49
CNC(=O)C1CCCCC1NCC(O)C(F)(F)F (centres undefined)	-11	1.87
Cc1ccc(C)c(NC(=O)c2ccccc2OCc2csc(C)n2)c1	-2	0.31
CC(=O)N1CCC(Nc2ncnc3sccc23)CC1	29	-3.96
Cc1csc(-c2cc(S(=O)(=O)Nc3ccc(S(N)(=O)=O)cc3)c(C)n2C)n1	-7	0.82
CC(C(=O)NC(C)(C)C)N1CCCC(C(=O)N2CCCCCC2)C1 (centres undefined)	-8	0.86
O=C1c2c(nc3ccccc3c2-c2ccccc2)CN1Cc1ccccc1	-43	5.1
CC(C)N(c1ccccc1)c1ccc(NC(=O)COC(=O)c2cccc(S(=O)(=O)N3CCCc4ccccc43)c2)cc1	-16	1.61
O=C(Nc1ccc(C2OC(=O)N(Cc3ccc(F)cc3)C2C(=O)Nc2ccccc2)cc1)c1ccc(F)cc1 (centres undefined)	-7	0.94
COC(C(=O)N1C[C@H](OC)[C@@H](O)C1)c1ccccc1C(F)(F)F (some centres undefined)	-11	1.63
O=C(COc1ccc2oc3ccccc3c2c1)NC1CCN(Cc2ccccc2)CC1	-5	0.86
Cc1ccsc1CN(Cc1ccccc1)C(=O)CN(C(=O)CCc1ccccc1)C1CCCCC1	-4	0.59
O=S1(=O)NC2C3CC(CC31)C2OCc1ccc(F)c(Cl)c1 (centres undefined)	11	-1.48
O=C(Nc1n[nH]c2c(Cl)cccc12)[C@@H]1CCCN1C1CCOCC1	-3	0.37
COc1cc(-c2cc(CN(C[C@H]3CCCO3)C(=O)Cc3ccccc3)no2)cc(OC)c1OC	-14	1.33
Cc1cccc(C(=O)N2[C@H](C(=O)NCCN(C)C)COC23CCN(C(=O)c2cccc(F)c2)CC3)c1	-12	1.13
Clc1ccc2nc(N3CCCCC3)cc(-c3ccccc3)c2c1	-9	1.59

Structure (SMILES)	% Inhibition [%]	Z score
C[C@@H](C(=O)Nc1cc(C(F)(F)F)c[nH]c1=O)n1cc(Cl)cn1	33	-4.41
Cc1ccc(C(N)=O)cc1OCC(C)C	1	-0.08
Cc1cnccc1NCCNS(=O)(=O)c1cc(C(N)=O)cs1	-15	2.54
COc1cccc(C(=O)Nc2c3c(nc4ccccc24)CCCC3)c1	1	-0.12
CNc1ncc(CN(C)S(=O)(=O)NCc2ccccc2)cn1	-12	2.18
CC(C)c1ncc(NS(=O)(=O)c2cn(C)nc2C2CCCC2)cn1	3	-0.53
CC(C)(C)OC(=O)N[C@@H]1COC[C@@H]1n1cc(N)cn1	5	-0.39
COc1cccc(Cn2c(=O)c3sccc3n(CC(=O)NC3CCCC3)c2=O)c1	23	-2.55
COC(=O)N1CCC[C@H](Nc2ccc(C#N)nc2)C1	-4	0.56
Cc1cc(CCNC(=O)[C@@H]2CCc3cc(Br)ccc32)on1	-7	0.94
CC(=O)N[C@H]1CCN(c2nc3c(s2)c(C)nn3C)C1	5	-0.6
Cc1ncoc1CNC(=O)[C@H]1CC(=O)N(C)[C@@H]1c1ccc(F)cc1	-4	0.49
Cc1cc(CN(C)C(=O)c2[nH]nc(C(C)C)c2Br)no1	-15	1.69
O=C(Nc1nccs1)C1CCCN(C(=O)C2CCCc3ccccc32)C1 (centres undefined)	-1	0.15
CC(NC1CCN(C(=O)COc2ccccc2)C1)c1cc2ccncc2s1 (centres undefined)	-3	0.48
CCOc1ncccc1C(=O)N1CCCC[C@H]1c1cc(C(N)=O)[nH]n1	9	-1.17
Cc1cc(NC(=O)c2ccoc2)n(C)n1	-6	1.24
Cc1nc(-c2cccc(NC(=O)CN3CCC[C@H]3c3ccccc3)c2)cs1	-3	0.35
C=CCOCCNC(=O)N[C@H]1CCCC12CCOCC2	0	-0.06
Cc1ccc(Cn2c(=O)c3nc(C(=O)Nc4c(C)cc(C)cc4C)nn3c3ccc(C)cc32)cc1	-1	0.13
O=C(c1ccc2[nH]c3c(c2c1)CCCC3)N1CCN(C(=O)c2ccco2)CC1	-9	1.43
